# Results reported in the supplement of paper PMC4967469.
# Columns and labels:
# Experiment in all cases: Viability of human cancer cell lines after 72 h of drug (GDSC screen)
# XMD15-27 = compound: C=CC(=O)Nc1ccc(C(=O)c2sc(Nc3ccc(N4CCN(C)CC4)cc3OC)nc2N)cc1 [XMD15-27]; details: top dose 10.24 µM; top dose inferred
# Protocol: (§1)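 Human cancer cell lines in 384-well plates, medium with 10% serum, drug for 72 h over a 256-fold dose range (nine 2-fold or five 4-fold steps up to the top dose). Adherent lines were fixed and stained with the nucleic acid dye Syto60, suspension lines read with resazurin; signal relative to control wells, capped at 0 and 100%. One two-parameter sigmoid per drug and line, fitted in a mixed model over all curves with the slope shared within a line.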
# SL 0101-1 = compound: CC(=O)O[C@@H]1[C@@H](OC(C)=O)[C@@H](O)[C@H](Oc2c(-c3ccc(O)cc3)oc3cc(O)cc(O)c3c2=O)O[C@H]1C [SL 0101-1]; details: top dose 10 µM; top dose inferred
# Protocol: as §1
# Temsirolimus = compound: CO[C@H]1C[C@@H]2CC[C@@H](C)[C@@](O)(O2)C(=O)C(=O)N2CCCC[C@H]2C(=O)O[C@H]([C@H](C)C[C@@H]2CC[C@@H](OC(=O)C(C)(CO)CO)[C@H](OC)C2)CC(=O)[C@H](C)/C=C(\C)[C@@H](O)[C@@H](OC)C(=O)[C@H](C)C[C@H](C)/C=C/C=C/C=C/1C [Temsirolimus]; details: top dose 0.2 µM
# Protocol: as §1
Cell Line,AUC (XMD15-27),IC50 (XMD15-27),AUC (SL 0101-1),IC50 (SL 0101-1),AUC (Temsirolimus),IC50 (Temsirolimus)
"H2369 (mesothelioma, adherent)",0.985,> 10.2 µM,0.987,> 10 µM,0.531,0.0152 µM
"HuO9 (osteosarcoma, adherent)",0.945,> 10.2 µM,0.971,> 10 µM,0.757,0.0758 µM
"C2BBe1 (large intestine, adherent)",0.986,> 10.2 µM,0.933,> 10 µM,0.837,0.161 µM
"639-V (bladder, adherent)",0.99,> 10.2 µM,0.976,> 10 µM,0.458,0.00977 µM
"DU-145 (prostate, adherent)",0.984,> 10.2 µM,0.944,> 10 µM,0.907,> 0.2 µM
"DMS-273 (small cell lung carcinoma, adherent)",0.985,> 10.2 µM,0.952,> 10 µM,0.915,> 0.2 µM
"TT2609-C02 (thyroid, adherent)",0.984,> 10.2 µM,0.986,> 10 µM,0.764,0.077 µM
"HT-1376 (bladder, adherent)",0.985,> 10.2 µM,0.984,> 10 µM,0.889,> 0.2 µM
"NCI-H82 (small cell lung carcinoma, suspension)",0.989,> 10.2 µM,0.975,> 10 µM,0.94,> 0.2 µM
"OC-314 (ovary, adherent)",0.986,> 10.2 µM,0.988,> 10 µM,0.88,0.157 µM
"HO-1-u-1 (head and neck, adherent)",0.983,> 10.2 µM,0.988,> 10 µM,0.628,0.0277 µM
"MFE-296 (endometrium, adherent)",0.985,> 10.2 µM,0.948,> 10 µM,0.453,0.00919 µM
"Raji (Burkitt lymphoma, suspension)",0.989,> 10.2 µM,0.987,> 10 µM,0.92,> 0.2 µM
"EW-16 (Ewing sarcoma, adherent)",0.977,> 10.2 µM,0.942,> 10 µM,0.537,0.0159 µM
"NCI-H2135 (non-small cell lung carcinoma, adherent)",0.971,> 10.2 µM,0.99,> 10 µM,0.991,> 0.2 µM
"MC-CAR (haematopoietic neoplasm, suspension)",0.96,> 10.2 µM,0.953,> 10 µM,0.571,0.0191 µM
"EoL-1-cell (haematopoietic neoplasm, suspension)",0.973,> 10.2 µM,0.972,> 10 µM,0.815,0.0943 µM
"KU812 (chronic myeloid leukaemia, suspension)",0.988,> 10.2 µM,0.982,> 10 µM,0.818,0.1 µM

Cell Line,AUC (XMD15-27),IC50 (XMD15-27),AUC (SL 0101-1),IC50 (SL 0101-1),AUC (Temsirolimus),IC50 (Temsirolimus)
"G-361 (melanoma, adherent)",0.973,> 10.2 µM,0.988,> 10 µM,0.787,0.0829 µM
"WM-115 (melanoma, adherent)",0.952,> 10.2 µM,0.962,> 10 µM,0.753,0.0805 µM
"EB2 (Burkitt lymphoma, suspension)",0.963,> 10.2 µM,0.99,> 10 µM,0.987,> 0.2 µM
"SU-DHL-4 (B-cell lymphoma, suspension)",0.997,> 10.2 µM,0.996,> 10 µM,0.997,> 0.2 µM
"MN-60 (B-cell leukaemia, suspension)",0.988,> 10.2 µM,0.987,> 10 µM,0.865,0.188 µM
"KELLY (neuroblastoma, adherent)",0.989,> 10.2 µM,0.983,> 10 µM,0.509,0.0132 µM
"TYK-nu (ovary, adherent)",0.985,> 10.2 µM,0.968,> 10 µM,0.257,0.00237 µM
"IGR-1 (melanoma, adherent)",0.99,> 10.2 µM,0.99,> 10 µM,0.929,> 0.2 µM
"EKVX (lung adenocarcinoma, adherent)",0.966,> 10.2 µM,0.961,> 10 µM,0.725,0.118 µM
"MC-IXC (neuroblastoma, adherent)",0.996,> 10.2 µM,0.996,> 10 µM,0.984,> 0.2 µM
"ES5 (Ewing sarcoma, adherent)",0.983,> 10.2 µM,0.966,> 10 µM,0.632,0.0307 µM
"COLO-680N (oesophagus, adherent)",0.984,> 10.2 µM,0.986,> 10 µM,0.953,> 0.2 µM
"HCC1419 (breast, adherent)",0.98,> 10.2 µM,0.919,> 10 µM,0.565,0.0202 µM
"NU-DUL-1 (B-cell lymphoma, suspension)",0.955,> 10.2 µM,0.966,> 10 µM,0.436,0.00867 µM
"OV-90 (ovary, adherent)",0.982,> 10.2 µM,0.98,> 10 µM,0.526,0.015 µM
"CESS (acute myeloid leukaemia, suspension)",0.921,> 10.2 µM,0.991,> 10 µM,0.946,> 0.2 µM
"DK-MG (glioma, adherent)",0.862,> 10.2 µM,0.97,> 10 µM,0.839,> 0.2 µM
"WM35 (melanoma, adherent)",0.986,> 10.2 µM,0.979,> 10 µM,0.672,0.038 µM

# IC50 is the fitted dose that halves viability relative to control wells, and lower means more sensitive; fits outside the tested doses are given as limits. AUC sums up the same curve from the lowest dose to the 256-fold higher top dose; it is 1 without any effect and falls as sensitivity rises. For part of these data: Any top dose called inferred comes from the curve model; the source does not state it.
